Reference: PubChem BioAssay AID504333 (National Center for Advancing Translational Sciences (NCATS), 2011)
In all, about 360,000 compounds went through this assay and about 16,000 (4.4%) were called active. The inconclusive results got no clear call from the source; some entries with a clear call stand among them for comparison. The call rests on the fitted dose curve; in most records, active means well fitted inhibition curve with a large enough effect; inconclusive means small, poorly fitted or top-dose-only effect; inactive means no such curve, though single readings can be large or run the other way. Potencies beside an inconclusive call are fits to weak or partial responses and may not hold up.

The compounds below were run against Bromodomain adjacent to zinc finger domain protein 2B (Homo sapiens) (UniProt Q9UIF8) (assay: qHTS Assay for Inhibitors of BAZ2B). Conditions: AlphaScreen BAZ2B-H3K14Ac peptide displacement; activity change, negative = inhibition: at 114 µM (top of the series) unless noted.
Method in brief: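 Multi-concentration screen (max 110 uM) measuring displacement of acetylated histone H3 peptide from BAZ2B by AlphaScreen, using 50 nM protein, 50 nM peptide and 10 ug/mL streptavidin donor plus Ni-chelate acceptor beads.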
Further: nearly all actives have a fitted effect of over 60% in size.
On the % scale 0 is the no-effect control and ±100 the full control effect; potency means the concentration at half of the fitted maximal effect; tags describe the fitted curve by direction and shape.

Sequence of UniProt Q9UIF8 (Q9UIF8 whole entry, looked up, the tested form may be a part): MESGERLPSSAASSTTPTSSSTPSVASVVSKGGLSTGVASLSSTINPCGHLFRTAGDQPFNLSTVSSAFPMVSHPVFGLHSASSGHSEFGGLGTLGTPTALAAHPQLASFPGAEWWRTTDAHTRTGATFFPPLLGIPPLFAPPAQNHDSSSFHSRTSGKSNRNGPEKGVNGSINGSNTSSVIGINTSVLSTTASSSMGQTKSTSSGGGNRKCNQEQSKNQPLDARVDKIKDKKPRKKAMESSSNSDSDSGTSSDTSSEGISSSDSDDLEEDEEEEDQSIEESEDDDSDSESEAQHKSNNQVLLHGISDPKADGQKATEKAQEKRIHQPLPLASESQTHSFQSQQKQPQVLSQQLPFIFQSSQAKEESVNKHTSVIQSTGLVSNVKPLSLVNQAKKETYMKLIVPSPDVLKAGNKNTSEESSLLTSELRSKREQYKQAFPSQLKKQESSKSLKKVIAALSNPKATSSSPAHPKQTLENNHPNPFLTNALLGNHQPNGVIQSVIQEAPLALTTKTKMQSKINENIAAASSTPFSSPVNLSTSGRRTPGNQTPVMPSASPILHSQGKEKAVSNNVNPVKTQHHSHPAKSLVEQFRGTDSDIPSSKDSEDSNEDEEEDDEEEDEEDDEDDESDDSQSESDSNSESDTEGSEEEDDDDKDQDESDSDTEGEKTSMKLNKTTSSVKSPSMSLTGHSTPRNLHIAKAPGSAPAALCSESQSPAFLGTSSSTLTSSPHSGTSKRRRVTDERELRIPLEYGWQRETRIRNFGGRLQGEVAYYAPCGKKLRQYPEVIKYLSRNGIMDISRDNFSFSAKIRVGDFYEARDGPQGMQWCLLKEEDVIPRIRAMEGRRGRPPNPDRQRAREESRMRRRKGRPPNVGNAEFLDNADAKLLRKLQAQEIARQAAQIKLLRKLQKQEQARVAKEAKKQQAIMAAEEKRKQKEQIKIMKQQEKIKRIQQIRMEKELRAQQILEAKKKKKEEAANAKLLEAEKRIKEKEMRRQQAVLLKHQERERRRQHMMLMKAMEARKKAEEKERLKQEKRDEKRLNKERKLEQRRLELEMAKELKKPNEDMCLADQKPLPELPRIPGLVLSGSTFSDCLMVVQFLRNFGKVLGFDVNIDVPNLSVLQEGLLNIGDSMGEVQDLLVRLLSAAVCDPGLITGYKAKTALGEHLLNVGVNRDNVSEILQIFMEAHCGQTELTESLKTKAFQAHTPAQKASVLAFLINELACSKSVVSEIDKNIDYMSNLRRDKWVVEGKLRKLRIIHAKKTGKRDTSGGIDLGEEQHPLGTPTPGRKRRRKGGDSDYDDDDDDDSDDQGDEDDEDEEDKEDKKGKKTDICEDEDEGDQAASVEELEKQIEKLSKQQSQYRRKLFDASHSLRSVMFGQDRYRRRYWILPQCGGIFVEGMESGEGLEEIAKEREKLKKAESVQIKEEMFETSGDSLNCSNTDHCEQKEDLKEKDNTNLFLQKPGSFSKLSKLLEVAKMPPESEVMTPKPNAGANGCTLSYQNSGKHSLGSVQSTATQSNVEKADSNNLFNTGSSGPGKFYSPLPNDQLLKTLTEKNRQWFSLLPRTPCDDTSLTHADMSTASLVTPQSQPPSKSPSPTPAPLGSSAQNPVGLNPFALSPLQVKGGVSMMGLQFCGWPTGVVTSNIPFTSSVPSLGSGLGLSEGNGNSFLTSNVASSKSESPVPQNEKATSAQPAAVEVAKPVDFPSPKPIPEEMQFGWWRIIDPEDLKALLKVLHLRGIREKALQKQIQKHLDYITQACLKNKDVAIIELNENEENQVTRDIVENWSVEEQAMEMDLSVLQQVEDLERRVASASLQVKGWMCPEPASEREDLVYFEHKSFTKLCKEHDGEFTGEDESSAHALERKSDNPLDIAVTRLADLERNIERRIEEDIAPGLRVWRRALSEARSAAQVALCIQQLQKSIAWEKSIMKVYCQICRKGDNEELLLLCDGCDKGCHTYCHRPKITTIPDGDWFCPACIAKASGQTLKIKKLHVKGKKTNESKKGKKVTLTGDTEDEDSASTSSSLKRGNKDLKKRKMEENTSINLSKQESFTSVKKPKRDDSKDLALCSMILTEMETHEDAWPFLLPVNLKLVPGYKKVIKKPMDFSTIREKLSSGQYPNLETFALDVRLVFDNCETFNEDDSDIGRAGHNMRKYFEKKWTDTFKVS

| SMILES | Potency | activity change, negative = inhibition |
| --- | --- | --- |
| O=C1CC(c2ccc3c(c2)OCO3)c2cc3c(cc2N1)OCCO3 (stereo not given) | inconclusive: 89.1 µM [inhibitor, single point] | – |
| CNCCOc1ccccc1OC(C)C | inconclusive: 56.2 µM [inhibitor, partial curve] | – |
| COc1cc(/C=N/N=C2/C(=O)Nc3ccccc32)ccc1O | inconclusive: 50.1 µM [inhibitor, partial curve] | – |
| O=C(c1ccc2c3c(cccc13)CC2)C1CCCN(Cc2ccncc2)C1 (stereo not given) | inconclusive: 44.7 µM [inhibitor, partial curve] | – |
| Cc1cccc(N2CCN(S(=O)(=O)c3c(C)nc4scc(C)n4c3=O)CC2)c1C | inactive | – |
| CCOc1ccc2c(c1)C(c1ccc(C)cc1)=NNC(c1ccc(OC)cc1)=N2 | inconclusive: 44.7 µM [inhibitor, partial curve] | – |
| Cc1nn(CCC#N)c(NC(=O)c2ccccc2)c1P(=O)(Nc1ccc(Br)cc1)N1CCOCC1 (stereo not given) | inconclusive: 89.1 µM [inhibitor, single point] | – |
| c1ccc(Cn2ncc3c(N4CCN(C(c5ccccc5)c5ccccc5)CC4)ncnc32)cc1 | inconclusive: 89.1 µM [inhibitor, partial curve] | – |
| CCCCn1c(=O)c2oc3ccccc3c2n(CC(=O)Nc2ccc(CC)cc2)c1=O | – | inactive: -6.45% |
| CCc1nc(SCC(=O)Nc2ccccc2C)n[nH]1 | – | inactive: -3.5% |
| CC(C)Oc1cccc(C(=O)Nc2ccc(Br)cc2F)c1 | – | inactive: 17.8% |
| O=c1c2cc(Br)ccc2nc(-c2ccc(Cl)cc2)n1O | inconclusive: 39.8 µM [inhibitor, partial curve, poor fit] | – |
| CCC(C)Nc1nc(N)c([N+](=O)[O-])c(NCc2ccccc2)n1 (stereo not given) | inconclusive: 70.8 µM [inhibitor, single point] | – |
| O=C(O)CCC(=O)N1N=C(c2ccco2)CC1c1cccs1 (stereo not given) | inconclusive: 89.1 µM [inhibitor, single point] | – |
| Nc1nnc(-c2cc3c(ccc4ccccc43)oc2=O)s1 | inconclusive: 79.4 µM [inhibitor, single point] | – |
| COc1ccccc1-c1ccc(/C=C2/C=C(C)OC2=O)o1 | inconclusive: 39.8 µM [inhibitor, partial curve] | – |
| C=CCOC(=O)c1cc(-c2ccc(/C=C3\C(=O)NC(=O)C(C#N)=C3C)o2)ccc1Cl | active: 35.5 µM | – |
| COc1ccc(C)cc1NC(C)C(=O)NC(=O)NC1CCCCC1 (stereo not given) | inconclusive: 44.7 µM [inhibitor, partial curve] | – |
| O=[N+]([O-])c1cc(Cl)cc(/C=N/NC(=S)Nc2ccc(S(=O)(=O)N3CCOCC3)cc2)c1O | active: 2.82 µM | – |
| N#Cc1ccccc1S(=O)(=O)Nc1ccc2c(c1)C(=O)OC2 | – | inactive: -2.62% |
| Oc1ccc(/C(Cc2ccc3ccccc3n2)=N\Nc2ccccc2)c(O)c1 | inconclusive: 44.7 µM [inhibitor, partial curve] | – |
| COC(=O)c1cc(C(=O)c2c(C)cc3ccccn23)cc([N+](=O)[O-])c1 | inconclusive: 11.2 µM [inhibitor, full curve] | – |
| COC(=O)C(C)Sc1n[nH]c(=S)s1 (stereo not given) | inconclusive: 8.91 µM [inhibitor, full curve] | – |
| CCc1cc2ccc(C)cc2nc1SCC(=O)N1CCN(C(=O)c2ccco2)CC1 | inconclusive: 89.1 µM [inhibitor, single point] | – |

| SMILES | Potency | activity change, negative = inhibition |
| --- | --- | --- |
| COc1cc(Br)cc(CN2CCN(C=O)CC2)c1O | inconclusive: 89.1 µM [inhibitor, single point] | – |
| Cc1cc(C)c2nc(C)cc(N/N=C/c3ccc(O)cc3)c2c1 | active: 39.8 µM | – |
| CC1=NOC(=O)/C1=C\c1ccc(-c2ccc(Br)cc2C(=O)O)o1 | inconclusive: 28.2 µM [inhibitor, full curve] | – |
| O=C(/C=C/c1ccc2c(c1)OCCCO2)c1ccc2ccccc2c1O | active: 10 µM | – |
| O=C(Nc1cccc(C(F)(F)F)c1)c1ccc2c(c1)nnn2C1CCCC1 | – | inactive: 4% |
| c1ccc(-c2nc(N3CCNCC3)nc3ccccc23)cc1 | inconclusive: 6.31 µM [inhibitor, single point] | – |
| C/C(=N\NC(=O)c1ccccc1O)c1ccc(NC(=O)c2ccccc2)cc1 | inconclusive: 79.4 µM [inhibitor, partial curve] | – |
| COCCCN1C(=O)C(=O)/C(=C(/O)c2ccc(S(=O)(=O)N3CCOCC3)cc2)C1c1ccc(Cl)cc1 (stereo not given) | inconclusive: 89.1 µM [inhibitor, single point] | – |
| CCc1ccc(/C=C/c2c[nH]c3ccccc23)[n+](CC)c1 | – | inactive: -0.155% |
| O=C(c1ccco1)N1CCN(C(c2ccccc2)c2nnnn2Cc2cccs2)CC1 (stereo not given) | inconclusive: 89.1 µM [inhibitor, single point] | – |
| Cc1cc(N2CCCC2)nc2ccc(NC(=S)NCCCOC(C)C)cc12 | inconclusive: 70.8 µM [inhibitor, single point] | – |
| COCCn1nnnc1C(c1ccc(O)c(OC)c1)N1CCc2ccccc2C1 (stereo not given) | inconclusive: 79.4 µM [inhibitor, single point] | – |
| Cc1cc(C)cc(C(=O)NC(CC(N)=O)c2ccc(NC3CCCCCCCCCCC3)c([N+](=O)[O-])c2)c1 (stereo not given) | inconclusive: 89.1 µM [inhibitor, single point] | – |
| COc1cccc(OC)c1C(=O)N1CCNCC1 | – | inactive: 9.21% |
| COc1ccc2c(c1)c(=O)oc1cc3occ(C(C)(C)C)c3cc12 | – | inactive: -6.59% |
| Cc1ccc2cccc(OCC(=O)N3CCc4ccccc43)c2n1 | inconclusive: 89.1 µM [inhibitor, single point] | – |
| O=C(N/N=C/c1c[nH]c2ccccc12)c1sc2ccccc2c1Cl | inconclusive: 70.8 µM [inhibitor, single point] | – |
| COc1cccc(-c2nc3c(c(SCC(=O)N4CCOCC4)n2)Cc2c(CO)cnc(C)c2O3)c1 | inconclusive: 79.4 µM [inhibitor, single point] | – |
| CC(C)N(CCCNC(=O)C1CCC(CNS(=O)(=O)c2ccccc2)CC1)Cc1ccccc1 (stereo not given) | – | inactive: -1.56% |
| O=C(NCc1ccc2c(c1)OCO2)c1c(O)nc2sccn2c1=O | inconclusive: 89.1 µM [inhibitor, single point] | – |
| O=C1c2ccccc2-c2onc3c(Oc4ccccc4)cc(O)c1c23 | active: 35.5 µM | – |
| FC(F)(F)c1cnc(C(c2ccccn2)c2ncn[nH]2)c(Cl)c1 (stereo not given) | active: 2.51 µM | – |
| Cc1cccc(NC(=O)CSCC(=O)OCc2ccccn2)c1 | – | inactive: -1.1% |
| CCOc1ccc(N(CC(=O)NCCSCc2ccc(C)cc2)S(C)(=O)=O)cc1 | inconclusive: 89.1 µM [inhibitor, single point] | – |

| SMILES | Potency | activity change, negative = inhibition |
| --- | --- | --- |
| CC1(C)O[C@H]2OC([C@H](O)CON3C(=O)c4ccccc4C3=O)[C@H](O)[C@H]2O1 (stereo not given in full) | – | inactive: -31.4% |
| Cc1cccc(NCc2ccc([N+](=O)[O-])s2)c1 | inconclusive: 50.1 µM [inhibitor, partial curve] | – |
| COc1cccc(C2/C(=C(/O)c3ccccc3)C(=O)C(=O)N2CCCC(=O)O)c1 (stereo not given) | inconclusive: 89.1 µM [inhibitor, single point] | – |
| COc1ccc(-c2ccc(/C=N/NC(=O)Cc3nnc(N)s3)o2)cc1Cl | inconclusive: 22.4 µM [inhibitor, full curve] | – |
| Cc1[nH]nc2c1C1(C(=O)N(Cc3ccc(Cl)cc3)c3ccccc31)C(C#N)=C(N)O2 (stereo not given) | – | inactive: -11.9% |
| COc1ccc(NC(=O)CSc2nc(-c3cc(OC)c(OC)c(OC)c3)[nH]c2-c2ccc(F)cc2)cc1 | inconclusive: 20 µM [inhibitor, full curve, poor fit] | – |
| CCOC(=O)C1=C(C)OC(N)=C(C#N)C1c1cc2c(cc1Br)OCO2 (stereo not given) | – | inactive: -38.5% |
| O=C(COC(=O)c1ccc2c(c1)C(=O)N(Cc1ccco1)C2=O)NCC(F)(F)F | – | inactive: 5.2% |
| O=C(CSc1nc(-c2ccccc2)cn1-c1ccccc1F)Nc1ccc(F)cc1 | inconclusive: 12.6 µM [inhibitor, partial curve] | – |
| CCc1nnc(NS(=O)(=O)c2ccc(NCc3cc(Cl)ccc3O)cc2)s1 | inconclusive: 70.8 µM [inhibitor, single point] | – |
| O=C1c2ccccc2C(=O)c2c1cccc2N(CCO)CCO | active: 50.1 µM | – |
| CCOC(=O)C1CCCN(C/C=C/c2ccccc2[N+](=O)[O-])C1 (stereo not given) | inconclusive: 89.1 µM [inhibitor, single point] | – |
| O=C(CNC(=O)c1ccccc1)OCc1cc(=O)n2cc(Br)ccc2n1 | inconclusive: 79.4 µM [inhibitor, single point] | – |
| CCN(CC)c1ccc(CNCCCSc2nnnn2C)cc1 | inconclusive: 50.1 µM [inhibitor, partial curve] | – |
| CCCCCOC(=O)CSc1nc2c(c(=O)[nH]c(=O)n2C)n1Cc1ccc(Cl)cc1 | – | inactive: 2.67% |
| COCCCN1C(=O)C(=O)/C(=C(/O)c2ccc(OC(C)C)cc2)C1c1ccncc1 (stereo not given) | inconclusive: 89.1 µM [inhibitor, single point] | – |
| CCOC(=O)C(C(=O)NCCCN1CCOCC1)C1CCCCC1 (stereo not given) | – | inactive: -6.1% |
| Cn1c(NC(=O)c2cc(-c3ccc4c(c3)OCO4)nc3ccccc23)cc(=O)n(C)c1=O | – | inactive: -6.64% |
| COc1ccc(N=C2C(=O)N3c4c(cccc42)C(C)=CC3(C)C)cc1 | active: 35.5 µM | – |
| COc1ccc(OC)c(NC(=O)N2CCCc3ccccc32)c1 | inconclusive: 70.8 µM [inhibitor, single point] | – |
| Cc1ccc(C(=O)N2CC(C)OC(C)C2)c(Cl)c1 (stereo not given) | inconclusive: 100 µM [inhibitor, single point] | – |
| C(=N\Nc1nc2ccccc2[nH]1)/c1ccc2c(c1)OCCO2 | inconclusive: 44.7 µM [inhibitor, partial curve] | – |
